# Source: the supplement of paper PMC12217912
# The other results are listed elsewhere or left out. The full chains were built here from the parent and the listed change. Inactive controls read about 0.05.
# B1: TEV protease; numbered along this chain (parent)
# chain: MGESLFKGPRDYNPISSSICHLTNESDGHTTSLYGIGFGPFIITNKHLFRRNNGTLVVQSLHGVFKVKDTTTLQQHLVDGRDMIIIRMPKDFPPFPQKLKFREPQREERICLVTTNFQTKSMSSMVSDTSCTFPSGDGIFWKHWIQTKDGQCGSPLVSTRDGFIVGIHSASNFTNTNNYFTSVPKNFMELLTNQEAQQWVSGWRLNADSVLWGGHKVFMVKPEEPFQPVKEATQL
# Variants of: B1
# Test: raw area under fraction-flipped curve 0-4 h after induction (AUC4h, not background-subtracted), DNA-recorder readout of cleavage of the substrate (dimensionless); higher = more cleavage of the substrate by the protease variant
# Conditions: temperature: 34 °C; time window: 0-4 h after rhamnose induction
# Method: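 In vivo DNA recorder in E. coli TOP10(DE3) ΔrhaA at 34 °C. Each TEVp single-site mutant (parent TEVp 0) is paired with a single-site variant of the 7-mer TEVs (canonical ENLYFQ|S). The substrate sits between flexible linkers in a Bxb1-sfGFP-TEVs-SsrA fusion, so cleavage stabilises Bxb1 and speeds flipping of a recombination array, read by NGS. The value is the raw area under the fraction-flipped curve over 0-4 h after rhamnose induction (AUC4h), with ≥20 reads per time point. It is not background-subtracted; inactive controls average about 0.047.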
# 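Further: Bxb1 expression induced with 0.2% (w/v) L-rhamnose at OD600 near 0.5, cultures sampled hourly, flipped fraction per protease–substrate barcode pair counted by paired-end Illumina sequencing.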
Variant,area with substrate ENLYFQA,area with substrate ENLYFQC,area with substrate ENLYFQF,area with substrate ENLYFQG,area with substrate ENLYFQH,area with substrate ENLYFQK,area with substrate ENLYFQL,area with substrate ENLYFQR,area with substrate ENLYFQS,area with substrate ENLYFQT,area with substrate ENLYFQY,area with substrate ENLYFQI,area with substrate ENLYFQM,area with substrate ENLYFQN,area with substrate ENLYFQQ,area with substrate ENLYFQV,area with substrate ENLYFQW,area with substrate ENLYFQD,area with substrate ENLYFQE,area with substrate ENLYFQP
MGESLFKGPRDYNPISSSICHLTNESDGHTTSLYGIGFGPFIITNKHLFRRNNGTLVVQSLHGVFKVKDTTTLQQHLVDGRDMIIIRMPKDFPPFPQKLKFREPQREERICLVTTNFQTKSMSSMVSDTSCTFPSGDGIFWKHWIQTKDGQCGSPLVKTRDGFIVGIHSASNFTNTNNYFTSVPKNFMELLTNQEAQQWVSGWRLNADSVLWGGHKVFMVKPEEPFQPVKEATQL [S158K],0.0452,0.0634,0.0492,0.0514,0.0676,0.0422,0.0449,0.0461,0.05,0.0563,0.0447,,,,,,,,,
MGESLFKGPRDYNPISSSICHLTNESDGHTTSLYGIGFGPFIITNKHLFRRNNGTLVVQSLHGVFKVKDTTTLQQHLVDGRDMIIIRMPKDFPPFPQKLKFREPQREERICLVTTNFQTKSMSSMVSDTSCTFPSGDGIFWKHWIQTKDGQCGSPLVQTRDGFIVGIHSASNFTNTNNYFTSVPKNFMELLTNQEAQQWVSGWRLNADSVLWGGHKVFMVKPEEPFQPVKEATQL [S158Q],0.0462,,,0.0516,0.0451,0.054,0.0603,0.0478,0.0613,0.0594,,0.0745,0.0572,0.0506,0.0541,0.0406,0.064,,,
MGESLFKGPRDYNPISSSICHLTNESDGHTTSLYGIGFGPFIITNKHLFRRNNGTLVVQSLHGVFKVKDTTTLQQHLVDGRDMIIIRMPKDFPPFPQKLKFREPQREERICLVTTNFQTKSMSSMVSDTSCTFPSGDGIFWKHWIQTKDGQCGSPLVSHRDGFIVGIHSASNFTNTNNYFTSVPKNFMELLTNQEAQQWVSGWRLNADSVLWGGHKVFMVKPEEPFQPVKEATQL [T159H],0.0725,0.115,,0.145,0.0487,0.0535,,,0.113,,,,0.102,,,,0.0492,,,
MGESLFKGPRDYNPISSSICHLTNESDGHTTSLYGIGFGPFIITNKHLFRRNNGTLVVQSLHGVFKVKDTTTLQQHLVDGRDMIIIRMPKDFPPFPQKLKFREPQREERICLVTTNFQTKSMSSMVSDTSCTFPSGDGIFWKHWIQTKDGQCGSPLCSTRDGFIVGIHSASNFTNTNNYFTSVPKNFMELLTNQEAQQWVSGWRLNADSVLWGGHKVFMVKPEEPFQPVKEATQL [V157C],0.0728,0.0985,,,0.0721,0.0731,0.0773,0.0612,0.102,0.0706,0.0931,0.0757,0.0751,,,,0.059,0.0689,0.0936,
MGESLFKGPRDYNPISSSICHLTNESDGHTTSLYGIGFGPFIITNKHLFRRNNGTLVVQSLHGVFKVKDTTTLQQHLVDGRDMIIIRMPKDFPPFPQKLKFREPQREERICLVTTNFQTKSMSSMVSDTSCTFPSGDGIFWKHWIQTKDGQCGSPLKSTRDGFIVGIHSASNFTNTNNYFTSVPKNFMELLTNQEAQQWVSGWRLNADSVLWGGHKVFMVKPEEPFQPVKEATQL [V157K],0.0532,,,,,,0.0541,,0.0637,,,0.0715,0.0409,0.0607,,0.0382,,,,
MGESLFKGPRDYNPISSSICHLTNESDGHTTSLYGIGFGPFIITNKHLFRRNNGTLVVQSLHGVFKVKDTTTLQQHLVDGRDMIIIRMPKDFPPFPQKLKFREPQREERICLVTTNFQTKSMSSMVSDTSCTFPSGDGIFWKHWIQTKDGQCHSPLVSTRDGFIVGIHSASNFTNTNNYFTSVPKNFMELLTNQEAQQWVSGWRLNADSVLWGGHKVFMVKPEEPFQPVKEATQL [G153H],0.048,0.0478,,,0.0472,,,0.0418,0.0489,0.0474,,0.0366,,0.0472,0.0254,,,,,0.0466
MGESLFKGPRDYNPISSSICHLTNESDGHTTSLYGIGFGPFIITNKHLFRRNNGTLVVQSLHGVFKVKDTTTLQQHLVDGRDMIIIRMPKDFPPFPQKLKFREPQREERICLVTTNFQTKSMSSMVSDTSCTFPSGDGIFWKHWIQTKDGQCDSPLVSTRDGFIVGIHSASNFTNTNNYFTSVPKNFMELLTNQEAQQWVSGWRLNADSVLWGGHKVFMVKPEEPFQPVKEATQL [G153D],0.0345,0.0388,,,0.045,,0.0704,,0.0452,,,,0.0616,,,,0.0478,0.0444,0.0557,
MGESLFKGPRDYNPISSSICHLTNESDGHTTSLYGIGFGPFIITNKHLFRRNNGTLVVQSLHGVFKVKDTTTLQQHLVDGRDMIIIRMPKDFPPFPQKLKFREPQREERICLVTTNFQTKSMSSMVSDTSCTFPSGDGIFWKHWIQTKDSQCGSPLVSTRDGFIVGIHSASNFTNTNNYFTSVPKNFMELLTNQEAQQWVSGWRLNADSVLWGGHKVFMVKPEEPFQPVKEATQL [G150S],0.066,0.0224,,,0.0476,,0.0412,0.0669,0.0612,0.0728,,,0.0748,0.0588,,,,0.0416,,
MGESLFKGPRDYNPISSSICHLTNESDGHTTSLYGIGFGPFIITNKHLFRRNNGTLVVQSLHGVFKVKDTTTLQQHLVDGRDMIIIRMPKDFPPFPQKLKFREPQREERICLVTTNFQTKSMSSMVSDTSCTFPSGDGIFWKHWIQTKDMQCGSPLVSTRDGFIVGIHSASNFTNTNNYFTSVPKNFMELLTNQEAQQWVSGWRLNADSVLWGGHKVFMVKPEEPFQPVKEATQL [G150M],0.0571,0.0524,,,,0.0631,0.0583,0.0507,0.0613,0.0676,,0.0634,0.0569,,,0.0302,0.0537,,0.0451,
MGESLFKGPRDYNPISSSICHLTNESDGHTTSLYGIGFGPFIITNKHLFRRNNGTLVVQSLHGVFKVKDTTTLQQHLVDGRDMIIIRMPKDFPPFPQKLKFREPQREERICLVTTNFQTKSMSSMVSDTSCTFPSGDGIFWKYWIQTKDGQCGSPLVSTRDGFIVGIHSASNFTNTNNYFTSVPKNFMELLTNQEAQQWVSGWRLNADSVLWGGHKVFMVKPEEPFQPVKEATQL [H143Y],0.14,,,,,0.0591,0.0571,0.0471,0.128,0.0544,,0.0559,,,0.097,0.0644,,,,0.0467
MGESLFKGPRDYNPISSSICHLTNESDGHTTSLYGIGFGPFIITNKHLFRRNNGTLVVQSLHGVFKVKDTTTLQQHLVDGRDMIIIRMPKDFPPFPQKLKFREPQREERICLVTTNFQTKSMSSMVSDTSCTFPSGDGIFWKHWIGTKDGQCGSPLVSTRDGFIVGIHSASNFTNTNNYFTSVPKNFMELLTNQEAQQWVSGWRLNADSVLWGGHKVFMVKPEEPFQPVKEATQL [Q146G],0.0852,0.11,,,0.118,0.0928,0.0641,0.0699,0.112,0.0653,,0.039,0.0771,,,0.0872,0.0593,,,
